The shares of active, inactive and inconclusive entries below differ from those in the screen. Potencies of inconclusive entries are doubtful fits and often do not repeat. Active and inactive are the calls of the source. Calls follow the shape of the dose curve; as a rule, active = well fitted inhibition curve with a large enough effect; inconclusive = small, poorly fitted or top-dose-only effect; inactive = flat fitted curve, though single readings scatter.
Assay: Primary qHTS for inhibitors of nuclear receptor binding SET domain protein 2 (NSD2) in an isogenic RCH-ACV NSD2 p.E1099K mutant (9B) (AID 1645876); also: nearly all actives have a fitted effect of over 70% in size
Settings: RCH-ACV (leukaemia line) NSD2 E1099K (9B) viability, CellTiter-Glo, 72 h; activity change, negative = viability loss: at 44.9 µM (top of the series) unless noted; series mostly up to 44.9 µM
% is scaled to controls: 0 for no effect and ±100 for the full control effect; potency is read from the fitted curve at half-maximal effect; tags tell the direction and shape of the fitted curve.

| Structure (SMILES) | activity change, negative = viability loss | Potency |
| --- | --- | --- |
| C=CC(C)(O)C1CC2C3(C)CCCC(C)(C)C3C(O)C(O)C2(C)O1 (stereo unspecified) | inactive: -3.49% |  |
| C/C1=C\CCC2=C[C@@H](OC2=O)c2c(C)coc2C1 |  | inconclusive: 25.8 µM [inhibitor, partial curve, poor fit] |
| C[C@@H]1O[C@@H](O[C@@H]2[C@@H](O[C@@H]3O[C@@H](C)[C@H](O[C@@H]4OC[C@H](O)[C@H](O[C@@H]5OC[C@@H](O)[C@H](O)[C@H]5O)[C@H]4O)[C@@H](O[C@@H]4OC[C@](O)(CO)[C@H]4O)[C@H]3O)[C@H](OC(=O)[C@]34CCC(C)(C)C[C@H]3C3=CCC5[C@@]6(C)C[C@H](O)[C@H](O[C@@H]7O[C@H](CO[C@@H]8OC[C@H](O)[C@H](O)[C@H]8O)[C@@H](O)[C@H](O)[C@H]7O)C(C)(C)C6CC[C@@]5(C)[C@]3(C)C[C@H]4O)OC[C@H]2O)[C@H](O)[C@H](O)[C@H]1O (stereo partly specified) |  | inconclusive: 4.87 µM [inhibitor, single point] |
| CC1OC(OC2C(O)C(OC3CCC4(C)C(CCC5(C)C4CC=C4C6CC(C)(COC7OC(CO)C(O)C(O)C7O)CC(O)C6(C)CCC45C)C3(C)C)OC(C(=O)O)C2O)C(O)C(O)C1OC1OCC(O)C(O)C1O (stereo unspecified) | inactive: -10.7% [at 9.23 µM] |  |
| C[C@]12C=CC(=O)C=C1CC[C@@H]1[C@@H]2[C@@H](O)C[C@@]2(C)[C@H]1CC[C@]2(O)C(=O)COC(=O)CCC(=O)O |  | inconclusive: 1.29 µM [inhibitor, partial curve] |
| CC(=O)OC[C@]12[C@H](OC(C)=O)[C@H](OC(=O)c3ccccc3)[C@@H]3[C@@H](OC(C)=O)[C@]1(OC3(C)C)[C@H](C)C[C@H](OC(=O)c1ccccc1)[C@@H]2OC(=O)c1ccccc1 | inactive: -13.1% [at 17.3 µM] |  |

— PubChem BioAssay (NCATS)
